About 2,200 (0.71%) of roughly 310,000 compounds showed an effect of 50% or more. Effects have a minus sign here. The list shows a part of the results.
What follows are compounds tested against human ether-à-go-go-related gene (hERG) potassium channel (human, UniProt Q12809) (assay: primary screen, population patch clamp on CHO cells stably expressing hERG).
Chain of human ether-à-go-go-related gene (hERG) potassium channel (Q12809 whole entry, looked up): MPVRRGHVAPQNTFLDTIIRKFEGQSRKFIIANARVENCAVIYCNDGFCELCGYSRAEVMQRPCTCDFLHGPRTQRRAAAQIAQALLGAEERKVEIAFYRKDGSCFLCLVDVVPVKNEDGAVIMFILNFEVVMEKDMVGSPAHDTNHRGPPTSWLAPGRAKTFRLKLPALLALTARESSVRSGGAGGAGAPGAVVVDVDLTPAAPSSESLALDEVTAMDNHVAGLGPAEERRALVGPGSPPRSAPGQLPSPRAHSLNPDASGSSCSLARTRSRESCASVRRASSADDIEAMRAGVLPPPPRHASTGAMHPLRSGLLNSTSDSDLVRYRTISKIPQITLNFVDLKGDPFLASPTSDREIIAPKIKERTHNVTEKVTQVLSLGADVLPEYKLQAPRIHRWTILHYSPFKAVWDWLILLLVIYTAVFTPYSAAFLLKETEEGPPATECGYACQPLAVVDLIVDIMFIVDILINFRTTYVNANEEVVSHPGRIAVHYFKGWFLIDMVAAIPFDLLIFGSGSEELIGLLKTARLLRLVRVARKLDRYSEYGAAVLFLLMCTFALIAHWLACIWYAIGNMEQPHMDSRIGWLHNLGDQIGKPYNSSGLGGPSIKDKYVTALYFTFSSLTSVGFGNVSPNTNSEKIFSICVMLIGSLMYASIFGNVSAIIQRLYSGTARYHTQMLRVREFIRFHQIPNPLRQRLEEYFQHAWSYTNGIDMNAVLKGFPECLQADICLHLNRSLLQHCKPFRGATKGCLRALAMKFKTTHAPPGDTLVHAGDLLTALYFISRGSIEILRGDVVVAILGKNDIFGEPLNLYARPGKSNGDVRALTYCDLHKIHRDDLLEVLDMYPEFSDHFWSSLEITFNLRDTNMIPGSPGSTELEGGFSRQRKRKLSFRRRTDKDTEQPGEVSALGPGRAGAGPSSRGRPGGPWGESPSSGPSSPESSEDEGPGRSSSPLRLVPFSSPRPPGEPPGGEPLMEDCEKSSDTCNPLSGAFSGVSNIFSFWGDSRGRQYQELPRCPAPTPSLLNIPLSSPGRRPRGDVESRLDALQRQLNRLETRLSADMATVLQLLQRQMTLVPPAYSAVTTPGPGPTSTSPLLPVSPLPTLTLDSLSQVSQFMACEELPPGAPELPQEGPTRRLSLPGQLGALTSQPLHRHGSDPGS

| Structure (SMILES) | hERG current change (%, negative = inhibition) at 1uM [%] |
| --- | --- |
| CCOC(=O)c1c(-c2ccc(-c3ccccc3)cc2)csc1NC(=O)C1C2CCC(O2)C1C(=O)O (stereo not shown) | 6.39 |
| COC(=O)c1cc(=O)n(Cc2ccccc2)c(=NCc2ccccc2)s1 | 14.9 |
| O=C(Nc1cccc(C(F)(F)F)c1)NC1CCCCC1 | 0.393 |
| CCCCN(C(=O)c1cc(S(=O)(=O)N2CCOCC2)ccc1Cl)c1c(N)n(CC(C)C)c(=O)[nH]c1=O | -10.1 |
| O=C(Nc1ccccc1N1CCCCC1)c1ccc(Cl)cc1 | 9.07 |
| CCn1cc(S(=O)(=O)N2CCN(c3ccc(Cl)cc3)CC2)cn1 | 9.32 |
| COc1cc(NC(=O)c2noc3c2CCC3)c(OC)cc1Cl | 11 |
| COc1ccc(C2=NC(C)(C)Cc3cc(OC)c(OC)cc32)cc1 | 3.52 |
| CCOc1ccc(N(CC(=O)NC2CCCCC2)C(=O)CNC(=O)c2ccco2)cc1 | -5.99 |
| NS(=O)(=O)c1cccc(NC(=O)Cn2cnc3ccccc3c2=O)c1 | 12.6 |
| CCC(C)NC(=O)C1CC(=O)N(CCc2ccc(F)cc2)C1 (stereo not shown) | 13.6 |
| CCc1nnc(NC(=O)c2c(O)c3c([nH]c2=O)CCCC3)s1 | 12.2 |
| c1ccc(CSc2nnnn2-c2cccc3ccccc23)nc1 | 8.68 |
| CC(=O)C1=C(O)C(=O)N(c2cccc(Br)c2)C1c1ccc(Br)cc1 (stereo not shown) | 14.4 |
| CC(=O)N1CCN(c2nnnn2-c2ccccc2)CC1 | 2.28 |
| COCCN(C(=O)COC(=O)c1ccc(C)s1)c1c(N)n(Cc2ccccc2)c(=O)[nH]c1=O | 9.02 |
| O=C(c1ccc(S(=O)(=O)NCc2ccco2)cc1)N1CCN(Cc2ccc3c(c2)OCO3)CC1 | -11.3 |
| Cc1nc(C(C)N(C)Cc2c(C(=O)N3CCCCC3)nc3c(C)cccn23)c(C)s1 (stereo not shown) | -1.42 |
| Nc1nc2ccc(NC(=O)c3ccco3)cc2s1 | 10.9 |
| O=C(Nc1ccc2c(c1)CCC2)c1cnn2c1NC(c1ccco1)CC2C(F)(F)F (stereo not shown) | 4.97 |
| Cc1cc(N)n(-c2cc(C)c3ccccc3n2)n1 | 9.59 |
| CCN(c1ccc(C(=O)CSc2nnc(C3CC3)n2C2CC2)cc1)S(C)(=O)=O | 8.34 |

| Structure (SMILES) | hERG current change (%, negative = inhibition) at 1uM [%] |
| --- | --- |
| CCN(CC)c1ccc(NC(=O)c2c(C)noc2C)cc1 | 11.4 |
| Cc1ccc(CN2CCCN(Cc3ccccc3C)S2(=O)=O)cc1 | 15.6 |
| N#CCC(=O)N/N=C/c1ccc(Cl)cc1 | 11.2 |
| O=C(CN(c1cccc(C(F)(F)F)c1)S(=O)(=O)c1ccc(Cl)c([N+](=O)[O-])c1)NCc1ccccc1 | 4.09 |
| CCOc1ccc(NC(=O)CCC(=O)NNC(=O)Nc2ccc(Cl)cc2)cc1 | 14.3 |
| CCCC1=C(C(=O)OCC)C(c2ccncc2)n2ncnc2N1 (stereo not shown) | 1.9 |
| COC(=O)C1=C(C)NC(=O)NC1c1ccccc1Cl (stereo not shown) | 18 |
| Cc1c(C(=O)N(Cc2ccccc2Cl)C2CCS(=O)(=O)C2)oc2ccccc12 (stereo not shown) | 7.32 |
| Oc1ccc(Cl)cc1-c1cc(-c2cccc(Br)c2)n[nH]1 | 12.1 |
| O=[N+]([O-])c1ccc(Oc2cccnc2)nc1 | 8.14 |
| CCCS(=O)(=O)c1nc(S(=O)(=O)c2ccc(C)cc2)c(N2CCN(CC)CC2)s1 | 0.548 |
| CS(=O)(=O)O.Clc1cccc2c1Sc1ccccc1CC2N1CCNCC1 (stereo not shown) | -46.3 |
| COc1ccc(C(=O)Nc2cccnc2)cc1C(=O)Nc1cccnc1 | 16 |
| O=[N+]([O-])c1cc(C(F)(F)F)ccc1NC1CCN(Cc2ccccc2)CC1 | 3.28 |
| Cc1cccc(NS(=O)(=O)c2ccc(C(=O)N3CCC3)cc2)c1C | 10.9 |
| CCOc1ccc(NC(=O)NNC(=O)C(C)Oc2ccccc2OC)cc1 (stereo not shown) | 1.3 |
| CCCCC(=O)Nc1nc(C)c(-c2csc(Nc3cc(Cl)ccc3OC)n2)s1 | 2.54 |
| N/C(=N\OC(=O)c1ccc(Br)cc1)c1ccncc1 | 16.2 |
| Cc1ccccc1CNS(=O)(=O)c1c(C)[nH]c(C)c1C(=O)N1CCCCC1 | -8.49 |
| CCOC(=O)c1ccc(NC(=O)Oc2cc(C)c(Cl)cc2C(C)C)cc1 | 3.35 |
| CC(C)c1ccc(O)c(NC(=O)c2ncn[nH]2)c1 | 3.21 |
| CC1(C)NC(=O)N(CC(O)COc2ccccc2-c2ccccc2)C1=O (stereo not shown) | 8.86 |

| Structure (SMILES) | hERG current change (%, negative = inhibition) at 1uM [%] |
| --- | --- |
| O=C1[C@H]2[C@@H](c3ccc(F)cc3)N3C(=O)N(c4ccc(Br)cc4)C(=O)[C@@]3(Cc3ccccc3)[C@H]2C(=O)N1C1CCCCC1 | 12.3 |
| COc1ccccc1N(C(C)=O)c1nc(C)cc(C)c1C#N | 5.92 |
| CCOC(=O)c1sc(C)c2c(=O)n(CC)nnc12 | 4.83 |
| CCOc1cccc(C2C(C(=O)c3ccc(C)o3)=C(O)C(=O)N2c2nccs2)c1 (stereo not shown) | 5.32 |
| CCC(C)c1ccccc1OCCCN(C)Cc1ccccc1 (stereo not shown) | 14.4 |
| O=c1cc(N2CCN(c3ccc(F)cc3)CC2)[nH]c(=O)n1Cc1ccc(F)cc1 | 10.1 |
| COc1ccc(N2CC(C(=O)N3CCc4ccccc43)CC2=O)cc1 (stereo not shown) | -7.42 |
| Cc1ccc(OCC2Cn3c(nc4c3c(=O)n(C)c(=O)n4C)O2)cc1 (stereo not shown) | 7.46 |
| N#CCOC(=O)c1sccc1-n1cccc1 | -2.11 |
| COC(=O)CNC(=O)c1c(-c2c(Cl)cccc2Cl)noc1C | -1.45 |
| O=C(O)CC12CC3CC(C1)CC(n1ncc(N4CCC5(CC4)OCCO5)c(Cl)c1=O)(C3)C2 | 8.08 |
| O=[N+]([O-])c1cc(Cc2ccccc2)cc(C=Nc2ccc(N3CCOCC3)cc2)c1O | 18.2 |
| CC1CCCN(S(=O)(=O)c2ccc(NC(=O)CNC3CCCC3)cc2)C1 (stereo not shown) | 16 |
| COc1ccc(S(=O)(=O)NCCCN2CCOCC2)c2ccccc12 | 1.27 |
| CCCc1nn(-c2cc(Cl)ccc2OC)c2c1C(=O)CC(C)(C)C2 | 4.21 |
| CC(C)CCN(CCC(C)C)C/C(O)=C(\C#N)c1nc(-c2ccccc2)cs1 | 12 |
| O=C(Nc1ccccc1Cl)NC1(C(=O)N2CCOCC2)CCCCC1 | 17.8 |
| Cc1cccc(-n2c(=O)c3ccccc3n3c(=S)[nH]nc23)c1C | 17.3 |
| COc1ccc(-c2noc(CN3CCCCC3)n2)cc1OC | -0.964 |
| O=C(Nc1cccnc1Oc1ccc(Cl)cc1)c1cccc2ccccc12 | 9.85 |
| O=C(NCc1ccccc1)C1CCN(C(=O)Cc2ccccc2)CC1 | 11.9 |
| CCOC(=O)c1cnn(-c2nc(C)cc(C)n2)c1N | -3.18 |

| Structure (SMILES) | hERG current change (%, negative = inhibition) at 1uM [%] |
| --- | --- |
| O=C(CCN1C(=O)C2C3CCC(C3)C2C1=O)OCC(=O)c1cccc([N+](=O)[O-])c1 (stereo not shown) | 5.89 |
| O=C1COc2ccccc2N1Cc1ccccc1Cl | 19.2 |
| COc1ccc(C(=O)CN2CCN(c3ccc(F)cc3)CC2)cc1OC | -4.69 |
| Cc1nnsc1C(=O)NC1CCCc2c1cnn2-c1ccccc1F (stereo not shown) | 9.52 |
| CCCCNC(=O)CC(C(=O)N1CCc2ccccc21)n1ccnc1 (stereo not shown) | -9.37 |
| O=C(NC(=S)Nc1ccc2oc(=O)ccc2c1)c1cc2ccccc2o1 | 10.2 |
| COCCNC(=S)N/N=C(\C)c1ccc(O)cc1 | 7.8 |
| Cc1ccc(C)c(NC(=S)NCCN2CCOCC2)c1 | 6.74 |
| Cc1ccc(S(=O)(=O)N(C)c2cc(S(=O)(=O)N3CCC(C)CC3)c(C)cc2C)cc1 | 12.5 |
| CCC(=O)Nc1cccc(C(=O)Nc2nccs2)c1 | 8.98 |
| COc1ccc(N2CCN(Cc3cc(=O)oc4cc(C)c(Cl)c(C)c34)CC2)cc1 | 7.38 |
| CCn1c(CNC(=O)c2cccc(C)c2)nnc1SCC(=O)NC1CCCCC1C (stereo not shown) | 17.8 |
| O=C(Nc1ccc(S(=O)(=O)N2CCCC2)cc1)Nc1ccc(F)cc1F | 13.5 |
| C/C(=N\NC(=O)c1cccc(S(=O)(=O)N2CCCC2)c1)c1ccncc1 | 2.14 |
| CCn1cc(C(=O)N2CCN(c3cccc(Cl)c3)CC2)c2cc(OC)c(OC)cc2c1=O | -29.9 |
| CCC(Cc1ccccc1)NS(=O)(=O)c1c(C)nc2scc(C)n2c1=O (stereo not shown) | 14.7 |
| O=C(c1n[nH]c(=O)c2ccccc12)N1CCC2(CC1)OCCO2 | 21.8 |
| CCC(C)(C)NC(=O)CN(Cc1cccs1)C(=O)CCC(=O)Nc1nccs1 | -7.3 |
| Cc1cccc(NC(=O)CSc2nc3[nH]ncc3c(=O)n2-c2ccccc2)c1 | -0.53 |
| CCC1CCC(C(=O)NC(C(=O)NCCN2CCOCC2)C(C)C)CC1 (stereo not shown) | 13 |
| Oc1ccc(N=Nc2ccc3c(c2)OCCO3)c2ncccc12 | 10.4 |
| CN(C)c1nc(N)c([N+](=O)[O-])c(NCc2ccccc2)n1 | 5.92 |

— article PMC4336329 (PLoS ONE, 2015)
